# Test results taken from PubChem BioAssay AID686978 (National Center for Advancing Translational Sciences (NCATS), 2013).
# Hit rate of the full screen: of about 420,000 compounds, about 64,000 (15%) were called active. Inconclusive means that the source gave no clear call. Such entries were picked first, then a sample of the others. Calls follow the shape of the dose curve; as a rule, active = well fitted inhibition curve with a large enough effect; inconclusive = small, poorly fitted or top-dose-only effect; inactive = flat fitted curve, though single readings scatter. Potencies of inconclusive entries are left out as doubtful fits.
# Assay: qHTS for Inhibitors of human tyrosyl-DNA phosphodiesterase 1 (TDP1): qHTS in cells in absence of CPT; also: nearly all actives have a fitted effect of over 55% in size
# Conditions: DT40 Tdp1-/- hTDP1 cells, no CPT, ATP luminescence, 48 h; activity change, negative = growth inhibition: at 46.2 µM (top of the series) unless noted
# Outline: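 No-CPT arm: Tdp1-/-;hTDP1 DT40 cells (400/well) plus compounds, incubated ≥48 hr at 37 °C. Readout CellTiter-Glo luminescence.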
# % is scaled to controls: 0 for no effect and ±100 for the full control effect; potency is read from the fitted curve at half-maximal effect; tags tell the direction and shape of the fitted curve.
Compound,"activity change, negative = growth inhibition",Potency
COc1ccc(CCNC(=O)/C=C/c2ccco2)cc1OC,inactive: -8.72%,
O=C(N1CCCCC1)N1CCC(c2nc3ccccc3[nH]2)CC1,,"inconclusive [inhibitor, single point]"
Cc1ccc(OC(=O)CSc2nnc(-c3cccs3)o2)cc1C,inactive: -12.8%,
CCN(CC)S(=O)(=O)c1ccc2c(c1)nc(SC(C)C(N)=O)n2-c1ccc(OC)cc1 (centres undefined),,"inconclusive [inhibitor, single point]"
Cc1ccc(S(=O)(=O)Nc2ccc(-c3csc(-c4ccccc4)n3)cc2)cc1,,"inconclusive [inhibitor, single point]"
CCOC(=O)C1CCN(C(=O)C(C)Oc2ccc(Br)cc2)CC1 (centres undefined),,"inconclusive [inhibitor, partial curve]"
COC(=O)N/N=C(\C)c1ccc(C)c([N+](=O)[O-])c1,,"inconclusive [inhibitor, single point]"
Cc1ccc(NC(=O)c2sc3nc[nH]c(=O)c3c2C)cc1Cl,,"inconclusive [inhibitor, single point]"
CCOc1ccc(N(CC(=O)Nc2ccccc2CC)S(=O)(=O)c2c(C)[nH]c(=O)[nH]c2=O)cc1,inactive: -11.1%,
CC1=C(C(=O)OCc2ccccc2)C(c2ccccc2OS(=O)(=O)c2ccc(C)cc2)NC(=O)N1CCCC(=O)O (centres undefined),,"inconclusive [inhibitor, single point]"
CC(C)Cn1c(N)c(C(=O)COC(=O)c2ccc3ccccc3n2)c(=O)n(C)c1=O,,active: 16.4 µM
CC(=O)c1cccc(OC(=O)c2ccc3c(=O)n4c(nc3c2)CCC4)c1,inactive: -5.2%,
CCNc1ccc(Br)cc(C(=O)/C=C/c2ccc3c(c2)OCO3)c1=O,,"inconclusive [inhibitor, single point]"
CC(C)(C)c1ccc(C(=O)Nc2ccc(C(=O)N3CCOCC3)cc2)cc1,,active: 20.6 µM
Nc1ncnc2nnsc12,inactive: -6.84%,
CC(C)CCN1CCN(Cc2nc3c(s2)CCCC3)CC1CCO (centres undefined),,"inconclusive [inhibitor, single point]"
COc1ccc(/C=N/NC(=O)c2cccnc2)cc1CSc1nc2ccccc2s1,,active: 2.91 µM
O=C(NCCc1c[nH]c2ccc(Cl)cc12)c1ccc([N+](=O)[O-])cc1,inactive: -7.74%,
Cc1c(Cl)cccc1-n1ncc(C(=O)NCc2cccs2)c1C1CCN(C(=O)OC(C)(C)C)CC1,,"inconclusive [inhibitor, single point]"
O=C(C1CC(=O)N(c2ccc3c(c2)OCCO3)C1)N1CCN(S(=O)(=O)c2ccccc2F)CC1 (centres undefined),,"inconclusive [inhibitor, single point]"
O=C(C[n+]1cccc(O)c1)Nc1ccc(Br)cc1,inactive: -3.08%,
COc1cc([N+](=O)[O-])ccc1N1C(=O)C2C3C=CC(C4CC34)C2C1=O (centres undefined),,"inconclusive [inhibitor, single point]"
CCC(C)(C(=O)NC1CCCC1)N(C(=O)CNC(C)=O)c1ccc(C)cc1 (centres undefined),inactive: -23%,

Compound,"activity change, negative = growth inhibition",Potency
CCOC(=O)c1sc(NC(=S)NC(=O)c2cccc(OC)c2)nc1C,inactive: -16%,
Cc1cc(Cl)cc2c(N=Nc3ccccc3C(=O)O)c(O)[nH]c12,,"inconclusive [inhibitor, single point]"
COCCN(Cc1cc2ccc(C)cc2n2nnnc12)Cc1nnnn1C(C)(C)C,,"inconclusive [inhibitor, partial curve, poor fit]"
CCOC(=O)[C@]12CCCC=C1N(Cc1ccccc1)C(=O)[C@H](CC(=O)NCCCCc1ccccc1)C2,,"inconclusive [inhibitor, single point]"
COc1ccc(CCN(Cc2cccs2)S(=O)(=O)c2ccc(S(=O)(=O)N3CCC(C)CC3)cc2)cc1OC,,"inconclusive [inhibitor, full curve, poor fit]"
Cc1cc(C(=O)N/N=C/c2cccs2)no1,,"inconclusive [inhibitor, single point]"
CCc1nnc(NC(=O)c2cc(-c3ccco3)nc3ccccc23)s1,inconclusive: -32% [inhibitor],
COCCn1c(=O)c(-c2cc(F)cc(F)c2)nc2cnc(Oc3ccccc3)nc21,,"inconclusive [inhibitor, single point]"
CCOC(CNC(=O)C(=O)Nc1cc2c3c(c1)CC(=O)N3CCC2)OCC,inactive: 27.5%,
O=C(/C=C/c1ccc(Cl)cc1Cl)N1CCc2ccccc21,,"inconclusive [inhibitor, partial curve]"
COc1cc(C2c3c(-c4ccc(C)cc4)n[nH]c3C(=O)N2c2ccc(F)cc2)ccc1O (centres undefined),,"inconclusive [inhibitor, single point]"
CNC(=O)Cn1c(=O)c2cccn2c2ccc(F)cc21,inactive: -4.92%,
COc1ccc(-c2coc3c(OC)c(OC)cc(O)c3c2=O)cc1,,"inconclusive [inhibitor, single point]"
Cc1cccc(NC(=O)c2cc(S(=O)(=O)N3CCN(c4ccccc4F)CC3)ccc2F)c1C,,"inconclusive [inhibitor, single point]"
Fc1ccccc1Nc1nc(Cl)nc(Cl)n1,,"inconclusive [inhibitor, single point]"
COc1cc(CCN2C(=O)c3cccc4cccc(c34)C2=O)c(S(=O)(=O)NCCCO)cc1OC,,"inconclusive [inhibitor, partial curve]"
COc1ccc(NC(=O)c2sc3nc(N4CCOCC4)c4c(c3c2N)CC(C(C)C)OC4)c(OC)c1 (centres undefined),inactive: -2.66%,
FC(F)(F)c1cc(CCN2CCNC[C@@H]2Cc2ccccc2)cc(C(F)(F)F)c1,,"inconclusive [inhibitor, partial curve, poor fit]"
Cc1cc(C(=O)COC(=O)C2=NN(c3ccccc3)C(=O)CC2)c(C)n1CC(F)(F)F,inconclusive: -31.5% [inhibitor],
COC(=O)CSc1[nH]c2cc(C)ccc2c1[N+](=O)[O-],,"inconclusive [inhibitor, single point]"
CN(C1CCCCC1)S(=O)(=O)c1ccc(S(=O)(=O)N2CCCC2)cc1,inconclusive: -31.8% [inhibitor],
COc1ccccc1C(=O)OCC(=O)NCCNC(=O)COC(=O)c1ccccc1OC,inactive: -0.215%,
COc1ccc(CNC(=O)c2ccc3nc(CCc4ccccc4)oc3c2)c(OC)c1,,"inconclusive [inhibitor, single point]"

Compound,"activity change, negative = growth inhibition",Potency
COc1ccccc1CNc1nc(-c2ccccc2CO)c2sccc2n1,,"inconclusive [inhibitor, single point]"
C[C@@H]1CN([C@H](C)CO)C(=O)CCCn2nncc2CO[C@H]1CN(C)S(=O)(=O)c1ccc(Oc2ccccc2)nc1,inactive: -9.69%,
Cc1cnc(C)c(-c2cc(F)cc3c2OC(CNC(=O)Cc2c(C)noc2C)C3)n1 (centres undefined),,"inconclusive [inhibitor, single point]"
CCOc1ccc(OCCC(=O)OCC(=O)c2c(N)n(CC(C)C)c(=O)n(C)c2=O)cc1,,"inconclusive [inhibitor, single point]"
COc1cc(C2C(C(=O)c3ccc(C)o3)=C(O)C(=O)N2Cc2ccccc2)ccc1O (centres undefined),,"inconclusive [inhibitor, partial curve, poor fit]"
CCCSc1nc2[nH]ncc2c(=O)[nH]1,inactive: 3.13%,
C=CCOC(=O)C1=C[C@@H](c2ccc(C(F)(F)F)cc2)C[C@@H](OCCCCO)O1,inactive: -18.7%,
N#C/C(=C/c1cn(Cc2ccccc2Cl)c2ccccc12)C(=O)Nc1cccc(Cl)c1,,"inconclusive [inhibitor, single point]"
CCC1CCc2sc(C(=O)NCC(c3ccc(OC)cc3)N3CCCC3)cc2C1 (centres undefined),,active: 23.1 µM
O=C(N/N=C/c1sc2ccccc2c1O)c1cccc2ccccc12,,active: 5.17 µM
CCCCN1C(=O)C(CC(=O)NCCCCc2ccccc2)CC(C(=O)N(C)C)=C1C (centres undefined),,"inconclusive [inhibitor, full curve, poor fit]"
COc1ccc(OC)c(C(O)c2coc3ccc(O)c(CN4CCOCC4)c23)c1 (centres undefined),,"inconclusive [inhibitor, partial curve, poor fit]"
Cc1c(Cl)cccc1NC(=O)CCN1CCN(C)CC1,inactive: 17.7%,
Cc1ccc(OCCCCNC(C)c2ccccc2)c(C)c1 (centres undefined),,"inconclusive [inhibitor, single point]"
COc1cccc(CN2C(=O)c3ccccc3S2(=O)=O)c1,inactive: -16.9%,
COc1cc(NC(=O)N2CCC3(CC2)Nc2cc(F)ccc2-n2cccc23)cc(OC)c1OC,,active: 25.9 µM
COCCCn1c(C(=O)N2CC(C)OC(C)C2)cc2c(=O)n3ccccc3nc21 (centres undefined),inactive: -1.6%,
Cc1cccc2sc(N(CCCN(C)C)C(=O)CN3C(=O)c4ccccc4C3=O)nc12,,"inconclusive [inhibitor, partial curve]"
Cc1ccc(-c2nc(C#N)c(NCCCn3ccnc3)o2)cc1,inactive: -27.6%,
Cc1ccc(S(=O)(=O)NN=Cc2ccccc2Cl)cc1,,"inconclusive [inhibitor, single point]"
Cc1cc(NC(=O)C2CCN(C(=O)c3ccco3)CC2)ccc1Br,,"inconclusive [inhibitor, single point]"
Cc1cc(C)c(NC(=O)Cn2c(=O)nc(-c3ccccc3)c3cc(Cl)ccc32)c(C)c1,,"inconclusive [inhibitor, full curve]"
O=S(=O)(Nc1ncccc1O)c1ccc(Cl)cc1,,"inconclusive [inhibitor, partial curve]"
